# Key:
# [1] = test system: Wildling pine of the variety Loblolly (Pinus taeda L.); assay: Greenhouse postemergence spray on wildling pine seedlings, damage rating; format: in vivo; settings: rate 0.56 kg active/ha, day 30 after treatment, scale 0 = no damage, 100 = complete destruction, means of four replications
# Experimental: Water was used as the carrier.
# Here, the herbicidal compositions were suspended or emulsified in water as distribution medium to obtain a spray liquor, which was sprayed on the wildlings by using finely distributing nozzles, e.g. even flat fan spray nozzles. Spray liquor rate was 183 l/ha. The experiment was set up as a completely random design with four replications (one seedling per replication).
# The test period extended over 30 days at 27° C. During this time, the plants were tended, and their response to the treatments with the active compound was evaluated.
# The evaluation for the damage caused by the chemical compositions was carried out using a scale from 0 to 100%, compared to the untreated control plants. Here, 0 means no damage and 100 means complete destruction of the plants.
# [2] = test system: wildling pine of the variety Loblolly (Pinus taeda); assay: Field experiment site two, postemergence spray on natural population of wildling pine, damage rating; settings: rate 0.56 kg active/ha, ratings at 82 days after treatment, means of three replications
smiles,measurement,setting,value
"CC(C)C1(C)N=C(c2ncccc2C(=O)O)NC1=O (centres unmarked) [Imazapyr, imazapyr]",Loblolly Pine % control,[1],0%
same,Loblolly Pine % control,[2],10%
